Among all 3,200 compounds or so, about 300 (9.4%) showed activity. Only a part is listed here, and it is no random draw.
System: A673/TR/shEF
Test: cell viability (LOESS-normalised, relative to median of negative controls) (log2 ratio); higher = more viable cells (less compound effect), active = hit call of the paper (over 3 MAD below the median)
Settings: treatment time: 72 h
Outline: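 A673/TR/shEF Ewing sarcoma cells were plated at 1,500 per well in 384-well plates and cultured with or without doxycycline, added 24 h before compounds, to induce EWS-FLI1 shRNA knockdown. Library compounds at two or more concentrations, alongside DMSO controls, were applied for three days. Cell viability was measured by CellTiter-Glo luminescence on an Envision reader. Readings were LOESS-corrected per plate, divided by the median of negative controls and log2-transformed, and hits were wells lying at least three median absolute deviations from the median of all screened wells.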

[1] = 0.25 µM, library screen: screen1, EWS-FLI1 expression: high (no doxycycline)
[2] = 0.25 µM, library screen: screen1, EWS-FLI1 expression: low (doxycycline-induced shRNA knockdown)
[3] = 0.25 µM, library screen: screen2, EWS-FLI1 expression: high (no doxycycline)
[4] = 0.25 µM, library screen: screen2, EWS-FLI1 expression: low (doxycycline-induced shRNA knockdown)
[5] = 2.5 µM, library screen: screen1, EWS-FLI1 expression: high (no doxycycline)
[6] = 2.5 µM, library screen: screen1, EWS-FLI1 expression: low (doxycycline-induced shRNA knockdown)
[7] = 2.5 µM, library screen: screen2, EWS-FLI1 expression: high (no doxycycline)
[8] = 2.5 µM, library screen: screen2, EWS-FLI1 expression: low (doxycycline-induced shRNA knockdown)
[9] = 0.103 µM, library screen: screen3, EWS-FLI1 expression: high (no doxycycline)
[10] = 0.103 µM, library screen: screen3, EWS-FLI1 expression: low (doxycycline-induced shRNA knockdown)
[11] = 0.308 µM, library screen: screen3, EWS-FLI1 expression: high (no doxycycline)
[12] = 0.308 µM, library screen: screen3, EWS-FLI1 expression: low (doxycycline-induced shRNA knockdown)
[13] = 0.926 µM, library screen: screen3, EWS-FLI1 expression: high (no doxycycline)
[14] = 0.926 µM, library screen: screen3, EWS-FLI1 expression: low (doxycycline-induced shRNA knockdown)
[15] = 2.8 µM, library screen: screen3, EWS-FLI1 expression: high (no doxycycline)
[16] = 2.8 µM, library screen: screen3, EWS-FLI1 expression: low (doxycycline-induced shRNA knockdown)
[17] = 8.3 µM, library screen: screen3, EWS-FLI1 expression: high (no doxycycline)
[18] = 8.3 µM, library screen: screen3, EWS-FLI1 expression: low (doxycycline-induced shRNA knockdown)
[19] = 25 µM, library screen: screen3, EWS-FLI1 expression: high (no doxycycline)
[20] = 25 µM, library screen: screen3, EWS-FLI1 expression: low (doxycycline-induced shRNA knockdown)

Measured: cell viability (log2)

Cc1nc2sccn2c(=O)c1CCN1CCC(=C(c2ccc(F)cc2)c2ccc(F)cc2)CC1
inactive: [1] 0.091 | [2] 0.0157 | [3] 0.116 | [4] 0.093 | [5] 0.026 | [6] 0.1 | [7] 0.0995 | [8] 0.149

CO[C@H]1C[C@H](O[C@@H]2/C(C)=C/C[C@@H]3C[C@@H](C[C@]4(CC[C@H](C)[C@@H](C5CCCCC5)O4)O3)OC(=O)[C@@H]3C=C(C)/C(=N/O)[C@H]4OC/C(=C\C=C\[C@@H]2C)[C@]43O)O[C@@H](C)[C@@H]1O
inactive: [1] 0.0971 | [2] 0.0732 | [5] 0.0965 | [6] 0.0106

C[C@H](CCC(=O)O)[C@H]1CC[C@H]2[C@@H]3C(=O)C[C@@H]4CC(=O)CC[C@]4(C)[C@H]3CC(=O)[C@]12C
inactive: [1] 0.11 | [2] 0.0437 | [5] 0.164 | [6] 0.0419

O=C1c2c(O)ccc(O)c2C(=O)c2c(NCCNCCO)ccc(NCCNCCO)c21
active: [9] -0.962 | [10] -0.246 | [1] -1.93 | [2] -0.576 | [3] -2.25 | [4] -0.221 | [11] -1.25 | [12] -0.351 | [13] -1.51 | [14] -0.325 | [5] -4.22 | [6] -3.67 | [7] -2.87 | [8] -0.985 | [15] -2.02 | [16] -0.758 | [17] -3.96 | [18] -3.09 | [19] -4.26 | [20] -4.25

CCN1C(=O)C=CC1=O
inactive: [3] 0.0966 | [4] 0.079 | [7] 0.138 | [8] 0.057

COc1cc(O)cc(OC)c1OC
inactive: [1] 0.0343 | [2] 0.0156 | [5] 0.173 | [6] 0.0956

C[N+](C)(C)CCOC(N)=O
inactive: [1] 0.175 | [2] 0.136 | [3] 0.265 | [4] 0.0997 | [5] 0.189 | [6] 0.23 | [7] 0.197 | [8] 0.12

COC(=O)C[C@H]1C2(C)CC34OC5(C)O[C@@]6([C@H](OC)C(OC(=O)C(C)C)[C@]7(C)C(/C(=C(/OC)C(C)C)C(=O)O[C@H]7c7ccoc7)[C@@]6(O5)[C@H](OC)[C@@]3(OC)C2OC(C)=O)[C@]14C (stereo partly drawn)
inactive: [1] 0.14 | [2] 0.13 | [5] 0.0986 | [6] 0.154

Cc1ccc(Nc2nccc(N(C)c3ccc4c(C)n(C)nc4c3)n2)cc1S(N)(=O)=O
inactive: [9] -0.00021 | [10] 0.0417 | [11] 0.0983 | [12] 0.0646 | [13] 0.0364 | [14] 0.00608 | [15] 0.0526 | [16] 0.0214 | [17] 0.1 | [18] -0.0412 | [19] 0.0612 | [20] 0.0126

Reference: the supplement of paper PMC6089552
